± gives the standard deviation of the averaged measurements. The list shows a part of the results.
The sequences below were run on PfAP2-I AP2 domain 3 (GST-tagged) (assay: gcPBM binding intensity (ln(normalized median fluorescence intensity)); higher = stronger DNA binding).
Method in brief: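 The highest Masliner-normalised natural-log median intensity across replicate spots of either probe orientation is reported as binding intensity. GST-tagged P. falciparum DNA-binding domains expressed in E. coli were applied for 1 h to an Agilent 4 × 180k array of primer-extended double-stranded 36-bp intergenic genomic probes plus negative controls, and bound protein was detected with Alexa488 anti-GST antibody and scanned at 488 nm.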

Sequence	gcPBM binding intensity (ln)
ATATAGAATATATTAACATGCAATAAGTAAAGGGGG [TGCATGCA_site1022]	8.925 ± 0.035
CACTTCATAAAAATTGCACACATATAATAATGTACA [CACACA_site8692]	8.53 ± 0.32
ACAATGAAATATTCATGTACATATAAATAATAGTGT [XGTACX_site3762]	7.93 ± 0.42
TTTTACACTTTTTTTTGTACACACTAAAAAGATTAA [XGTACX_site8407]	8.26 ± 0.39
CAAATCATATATAGCACACAAATTCTTTATTATTAT [CACACA_site2815]	8.52 ± 0.13
AAAGGTTCATAAAAATGTACATAATTATTTACATGT [XGTACX_site2722]	7.78 ± 0.61
CTGATCCACATTTATACACACCTCGGTTTGTAGAGA [CACACA_site4393]	7.76 ± 0.54
AAAATATATAATATTTGTACATATTGATGGCAACAG [XGTACX_site6454]	7.82 ± 0.48
AATAAAAATATATCCACACACATATATATATATGTA [CACACA_site576]	7.75 ± 0.35
ATATGAATATATATATGTACTAATTAGTAGTTTACG [XGTACX_site6273]	8.06 ± 0.45
AGAAATTTACAAATACGTACACACATATATATATAT [XGTACX_site3141]	9.68 ± 0.51
GAAGATATGTAAAATTGTACATATTATTTTATTTTA [XGTACX_site5302]	7.31 ± 0.44
TCATAACAACTTTGTGTGCACATAAAACATGTATAT	10.3 ± 0.42
TATAAGACATGATATATACACACCTTGTTTTAATTT [CACACA_site2266]	7.56 ± 0.59
TTTTTTTTTTCATTCACACAAAAAAAAAAAATTTAT [CACACA_site5921]	7.84 ± 0.43
ATTCAAAATTATAGGTGTACGTATTTTTTTTTTTTT [XGTACX_site7177]	8.12 ± 0.38
TAAATTTATAAATCACGTACATATTTATTTATATTT [XGTACX_site4532]	7.63 ± 0.35
AGATGATATAATGGCACACAAATATTTTATTATAAA [CACACA_site3553]	8.09 ± 0.38
ATAATTTCATAATACGTGCACATAATATATAAAAAA	11.385 ± 0.007
TACTATTTAAAATATGAACACACATTATTTGTTTTA [CACACA_site8870]	7.47 ± 0.47
CACAAAAATAAACACACACACATATATATTTATTAT [CACACA_site5923]	7.69 ± 0.41
GGAAACTAAAGGAATAAAACTATGGAAATTAATTAA [CACACA_negctrl_site1647]	7.41 ± 0.77
TAAATTAAAAGACACACACACAAAAAAAAAAAAAAA [CACACA_site7131]	8.06 ± 0.39
ATATATATATGTAAGAGTACACAAAAATATGTATGT [XGTACX_site4335]	9.04 ± 0.15
TTTTGTAGATATGACTGTACATATTTTATACATAAC [XGTACX_site971]	7.81 ± 0.47

— the supplement of paper PMC11417369
